Experimental data taken from the supplement of paper PMC9990464.
Counter-ions that a name gives are not always drawn. Some of the results follow. Most values come without repeats; read them as rough.

test system: SJNB8; test: area under viability curve (10 nM-1 µM), viability relative to solvent or trametinib-only control (AUC (arbitrary, % viability x concentration range)); higher = less growth inhibition (more viable cells); details: 72 h compound exposure (96 h after seeding) h; trametinib co-treatment 0 µM
Experimental: (§1)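 Four neuroblastoma cell lines (KCNR, SKNBE, SJNB8, SKNAS) were seeded in 384-well plates. At 24 h, 1 µM trametinib or DMSO was added, followed by library compounds at 10 nM, 100 nM and 1 µM. Viability was read by MTT at 96 h and normalised to solvent-treated cells (DMSO arm) or to trametinib-only cells (trametinib arm). The area under the 3-point viability curve was computed in GraphPad Prism; units are as given (approx. 100000 = no effect).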
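Note: KCNR is a neuroblastoma cell line carrying an ALK mutation, in this DMSO arm without trametinib, viability was normalised to solvent-treated cells.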

Row | Structure (SMILES) | area under viability curve
1 | COc1cc([C@@H]2c3cc4c(cc3[C@@H](O[C@@H]3O[C@@H]5CO[C@@H](C)O[C@H]5[C@H](O)[C@H]3O)[C@H]3COC(=O)[C@H]23)OCO4)cc(OC)c1O [Etoposide] | 77000
2 | CC(/C=C/C(=O)NO)=C\[C@@H](C)C(=O)c1ccc(N(C)C)cc1 [Trichostatin A] | 57800
3 | COc1cc2c(cc1OC)CN(CCc1ccc(NC(=O)c3cccc4c(=O)c5cccc(OC)c5[nH]c34)cc1)CC2 [Elacridar HCl] | 90600
4 | CCOc1ccn(-c2ccc(F)cc2)c(=O)c1C(=O)Nc1ccc(Oc2ccnc(N)c2Cl)c(F)c1 | 92800
5 | Cc1cn(-c2cc(NC(=O)c3ccc(C)c(Nc4nccc(-c5cccnc5)n4)c3)cc(C(F)(F)F)c2)cn1 [Nilotinib] | 102000
6 | COc1cccc2c1C(=O)c1c(O)c3c(c(O)c1C2=O)C[C@@](O)(C(=O)CO)C[C@@H]3O[C@H]1C[C@H](N)[C@H](O)[C@H](C)O1 [Doxorubicin hydrochloride] | 68900

test system: SKNAS; test: as above; details: 72 h compound exposure (96 h after seeding) h; trametinib co-treatment 0 µM
Experimental: as §1

Row | Structure (SMILES) | area under viability curve
7 | CC1(C)CNc2cc(NC(=O)c3cccnc3NCc3ccncc3)ccc21 [Motesanib] | 138000
8 | CC(C)[C@H](O)C(=O)N[C@@H](C)C(=O)N[C@@H]1C(=O)N(C)CCc2ccccc21 [Semagacestat] | 87600
9 | CCOc1cc2ncc(C#N)c(Nc3ccc(OCc4ccccn4)c(Cl)c3)c2cc1NC(=O)/C=C/CN(C)C [Neratinib] | 75500
10 | Cc1cccn2c(=O)c(C=C(C#N)c3nc4ccccc4s3)c(Oc3ccc(F)cc3)nc12 | 119000
11 | N.N.O=C([O-])C[O-].[Pt+2] [Nedaplatin] | 122000
12 | Cc1cc(Nc2cc(N3CCN(C)CC3)nc(Sc3ccc(NC(=O)C4CC4)cc3)n2)n[nH]1 [Tozasertib] | 63100
13 | CC(=O)Nc1ccc(C(=O)Nc2ccccc2N)cc1 [Tacedinaline] | 117000
14 | C=C(C)[C@@H](CC=C(C)C)C[C@@]12C[C@@H](CC=C(C)C)C(C)(C)[C@@](CC=C(C)C)(C(=O)C(C(=O)c3ccc(O)c(O)c3)=C1O)C2=O [Garcinol] | 94400
15 | CNC(=O)c1ccc(N2C(=S)N(c3ccc(C#N)c(C(F)(F)F)c3)C(=O)C2(C)C)cc1F [Enzalutamide] | 85800
16 | CN1CC[C@H](c2c(O)cc(O)c3c(=O)cc(-c4ccccc4Cl)oc23)[C@H](O)C1 [Flavopiridol] | 39500
17 | CC(C)C1O[C@H](CN)[C@@H](CN)O1.O=C([O-])CC(=O)[O-].[Pt+2] [Eptaplatin] | 112000
18 | Nc1nc(OCc2ccccc2)c2nc[nH]c2n1 [O6-Benzylguanine] | 122000
19 | CC(=O)O[C@H]1C(=O)[C@@]2(C)[C@H]([C@H](OC(=O)c3ccccc3)[C@]3(O)C[C@H](OC(=O)[C@H](O)[C@@H](NC(=O)c4ccccc4)c4ccccc4)C(C)=C1C3(C)C)[C@]1(OC(C)=O)CO[C@@H]1C[C@@H]2O [7-epi-Taxol] | 29400
20 | C[C@]1(c2nc3c(C(N)=O)cccc3[nH]2)CCCN1 [Veliparib] | 86800
21 | COc1cc2c(Oc3ccc4[nH]c(C)cc4c3F)ncnc2cc1OCCCN1CCCC1 [Cediranib] | 102000
22 | O=Nc1ccc(O)c2ncccc12 | 103000
23 | Cc1ccc(NC(=O)c2ccc(CN3CCN(C)CC3)cc2)cc1Nc1nccc(-c2cccnc2)n1 [Imatinib mesylate] | 118000
24 | CCc1c2c(nc3ccc(O)cc13)-c1cc3c(c(=O)n1C2)COC(=O)[C@]3(O)CC [7-Ethyl-10-hydroxycamptothecin] | 22500
25 | O=C1c2c(O)ccc(O)c2C(=O)c2c(NCCNCCO)ccc(NCCNCCO)c21 [Mitoxanthrone HCl] | 53800
26 | CC(C)(C)c1nc(-c2cccc(NS(=O)(=O)c3c(F)cccc3F)c2F)c(-c2ccnc(N)n2)s1 [Dabrafenib] | 122000
27 | CC(=O)[O-].CC(=O)[O-].N.NC1CCCCC1.[Cl-].[Cl-].[Pt+4] [Satraplatin] | 90900
28 | COc1cc2c(cc1OC)CN(CCc1ccc(NC(=O)c3cc(OC)c(OC)cc3NC(=O)c3cnc4ccccc4c3)cc1)CC2 [Tariquidar] | 83300
29 | CC1(C)CCC(CN2CCN(c3ccc(C(=O)NS(=O)(=O)c4ccc(NCC5CCOCC5)c([N+](=O)[O-])c4)c(Oc4cnc5[nH]ccc5c4)c3)CC2)=C(c2ccc(Cl)cc2)C1 [Venetoclax] | 112000
30 | CN(C)C(=O)c1cc2cnc(Nc3ccc(N4CCNCC4)cn3)nc2n1C1CCCC1 [Ribociclib] | 92400
